Experimental data: the supplement of paper PMC9446081
Hit rate of the full screen: of about 39,000 compounds, about 220 (0.56%) showed activity. The list shows a part of the results.

Test system: Escherichia coli K-12 BW25113
Experiment: relative growth (OD600 normalised to plate interquartile mean) (fraction); higher = less growth inhibition, active = 0.2 or less
Settings: 50 µM; LB; incubation time: overnight (16-24 h)
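Note: static incubation at 37 °C against the wild-type strain, values averaged over two biological replicates.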

| Compound | relative growth |
| --- | --- |
| O=C(CN1CCOCC1)N[C@H]1CC[C@@H](CCNC(=O)C2CCC2)O[C@@H]1CO | inactive: 0.984 |
| CC[C@@H](C)C(=O)O[C@H]1[C@@H]2CC3=C4CC(=O)O[C@@H](c5ccoc5)[C@]4(C)CC[C@@H]3[C@@](C)(C2=O)[C@@H](CC(=O)OC)C1(C)C | inactive: 1.01 |
| C[C@@H]1CN([C@H](C)CO)C(=O)c2cc(NC(=O)Cc3ccccc3)ccc2O[C@@H]1CN(C)C(=O)Nc1cccc2ccccc12 | inactive: 0.982 |
| C/C=N/N(C)C=O | inactive: 1 |
| NC1=CC(=O)c2ccccc2C1=O | inactive: 0.81 |
| COCCOC(=O)N1C(=O)[C@@]2(c3cc(C#Cc4ccc(OC)cc4)ccc31)[C@H](C(N)=O)[C@H]1C(=O)O[C@H](c3ccccc3)[C@H](c3ccccc3)N1[C@@H]2c1ccccc1OCCO | inactive: 1.09 |
| O=C(Cc1ccccn1)NCC[C@@H]1CC[C@H](NC(=O)CN2CCOCC2)[C@@H](CO)O1 | inactive: 1.01 |
| COc1ccc2c3c(n(c2c1)C)[C@H](CO)N(C[C@]13CN(C1)C(=O)C1CCOCC1)C(=O)C1CCOCC1 | inactive: 0.906 |
| Cc1noc(C)c1S(=O)(=O)Nc1ccc2c(c1)C(=O)N([C@H](C)CO)C[C@H](C)[C@H](CN(C)S(=O)(=O)c1ccccc1)O2 | inactive: 0.99 |
| O=C(Cc1ccncc1)NCC[C@@H]1CC[C@@H](NC(=O)C2CCOCC2)[C@H](CO)O1 | inactive: 1.01 |
| Cc1ccc(S(=O)(=O)N(C)C[C@@H]2Oc3ccc(NS(C)(=O)=O)cc3C(=O)N([C@@H](C)CO)C[C@H]2C)cc1 | inactive: 0.982 |
| Cc1ccc(S[C@H](C)C(=O)c2ccc(C)c(Cl)c2)cc1 | inactive: 0.959 |
| C[C@@H]1CCCCO[C@@H](CN(C)C(=O)Cc2ccccc2)[C@@H](C)CN([C@H](C)CO)C(=O)c2cc(NC(=O)CCCCCC(=O)Nc3ccccc3N)ccc2O1 | inactive: 0.938 |
| Cc1noc(C)c1S(=O)(=O)Nc1ccc2c(c1)C(=O)N([C@H](C)CO)C[C@H](C)[C@@H](CN(C)C)OCCCC[C@@H](C)O2 | inactive: 0.99 |
| Cc1noc(C)c1S(=O)(=O)Nc1ccc2c(c1)CC(=O)N([C@@H](C)CO)C[C@H](C)[C@H](CN(C)Cc1ccc(-c3ccccc3)cc1)O2 | inactive: 1 |
| C[C@@H]1CN([C@@H](C)CO)C(=O)c2c(c3ccccc3n2C)-c2ccccc2CO[C@H]1CN(C)Cc1ccc(Oc2ccccc2)cc1 | inactive: 1.01 |
| Cc1noc(C)c1NC(=O)N(C)C[C@H]1Oc2c(NS(C)(=O)=O)cccc2C(=O)N([C@@H](C)CO)C[C@@H]1C | inactive: 1.01 |
| COCCCN1C(=O)[C@@]2(Cc3ccccc31)c1ccccc1C(=O)N(Cc1ccccc1)[C@H]2c1ccc(CO)cc1 | inactive: 1 |
| COc1ccc(NC(=O)Nc2ccc3c(c2)C(=O)N([C@@H](C)CO)C[C@@H](C)[C@H](CN(C)Cc2ccc(Cl)c(Cl)c2)O3)cc1 | inactive: 0.987 |

| Compound | relative growth |
| --- | --- |
| C[C@H](CO)N1C[C@H](C)[C@H](CN(C)S(=O)(=O)c2cn(C)cn2)Oc2c(NC(=O)C3CC3)cccc2C1=O | inactive: 0.94 |
| C[C@H]1CCCCO[C@@H](CN(C)C(=O)Nc2ccc3c(c2)OCO3)[C@@H](C)CN([C@@H](C)CO)C(=O)c2cc(NC(=O)Nc3ccccc3)ccc2O1 | inactive: 1.02 |
| C[C@@H]1CN([C@H](C)CO)C(=O)c2cccc(NC(=O)Nc3ccc(C(F)(F)F)cc3)c2O[C@@H]1CN(C)Cc1ccc(C(=O)O)cc1 | inactive: 0.967 |
| C[C@@H]1CN([C@@H](C)CO)C(=O)c2cc(NC(=O)Nc3ccc(C(F)(F)F)cc3)ccc2O[C@@H](C)CCCCO[C@H]1CN(C)C(=O)CCCN(C)C | inactive: 0.914 |
| COc1cccc(CNC(=O)C[C@@H]2C=C[C@@H](NC(=O)C3CCOCC3)[C@H](CO)O2)c1 | inactive: 0.987 |
| Cc1noc(C)c1NC(=O)Nc1ccc2c(c1)C(=O)N([C@@H](C)CO)C[C@H](C)[C@H](CN(C)Cc1ccc3c(c1)OCO3)OCCCC[C@@H](C)O2 | inactive: 0.988 |
| COc1ccc([Si](C)(C)[C@H]2[C@H](CCn3cc(CCO)nn3)O[C@@]3(C(=O)N(Cc4cccc(N5C(=O)c6cccc7cccc5c67)c4)c4ccccc43)[C@@H]2C)cc1 | inactive: 1 |
| NCCN1C(=O)c2[nH]nc(-c3ccccc3)c2[C@H]1c1ccccc1 | inactive: 0.893 |
| C[C@@H]1CN([C@H](C)CO)C(=O)c2cccc(NC(=O)Nc3ccc(F)cc3)c2O[C@H]1CN(C)Cc1ccc(C(F)(F)F)cc1 | inactive: 0.94 |
| C[C@@H]1CN([C@H](C)CO)C(=O)c2cc(NC(=O)c3ccccc3)ccc2O[C@@H](C)CCCCO[C@H]1CN(C)C(=O)CCC(F)(F)F | inactive: 0.998 |
| Cc1ccc(S(=O)(=O)Nc2cccc3c2O[C@@H](CN(C)C(=O)Nc2ccc(C(F)(F)F)cc2)[C@@H](C)CN([C@H](C)CO)C3=O)cc1 | inactive: 0.979 |
| O=C([C@@H]1[C@@H](CO)[C@@H]2Cn3c(cccc3=O)[C@H]1N2CC1CCCC1)N1CCOCC1 | inactive: 1.01 |
| Cc1ccc(S(=O)(=O)Nc2ccc3c(c2)C(=O)N(C)[C@H]2CC[C@@H](CC(=O)NCCc4ccncc4)O[C@@H]2CO3)cc1 | inactive: 1.05 |
| OCc1cc(O)c2c(O)c3c(O)cccc3c(O[C@@H]3O[C@H](CO)[C@H](O)[C@@H](O)[C@H]3O)c2c1 | inactive: 0.974 |
| CC(C)(C)c1csc(-c2ccc(OC(F)(F)F)cc2)n1 | inactive: 1.04 |
| NC(=O)NC(=O)C[n+]1ccc(/C=N/O)cc1 | inactive: 0.938 |
| COCCNC(=O)C[C@@H]1CC[C@H]2[C@@H](COC[C@@H](O)CN2S(=O)(=O)c2ccccc2F)O1 | inactive: 0.995 |
| C[C@@H]1CN([C@@H](C)CO)C(=O)c2cccc(NS(=O)(=O)c3ccccc3)c2O[C@@H]1CN(C)S(=O)(=O)c1cccs1 | inactive: 1.04 |
| COc1ccc(S(=O)(=O)N(C)C[C@H]2OCCCC[C@H](C)Oc3ccc(NC(=O)Nc4cccc5ccccc45)cc3C(=O)N([C@H](C)CO)C[C@H]2C)cc1 | inactive: 1.03 |
